# Assay results: PubChem BioAssay AID686979 (National Center for Advancing Translational Sciences (NCATS), 2013)
# “And” between values parts separate entries of the source, which are not always exact repeats. Identical values can stand only once. Among all 420,000 compounds or so, about 50,000 (12%) were called active. The shares of active, inactive and inconclusive entries below differ from those in the screen. Calls come from the whole dose curve; as a rule, active = well fitted inhibition curve with a large enough effect; inconclusive = small, poorly fitted or top-dose-only effect; inactive = flat fitted curve, though single readings scatter. Potencies beside an inconclusive call are fits to weak or partial responses and may not hold up.
# Test: qHTS for Inhibitors of human tyrosyl-DNA phosphodiesterase 1 (TDP1): qHTS in cells in presence of CPT; note: nearly all actives have a fitted effect of over 55% in size
# Conditions: chicken DT40 Tdp1-/-;hTDP1 cells + 20 nM CPT, ATP luminescence, 48 h; activity change, negative = growth inhibition: at 46.2 µM (top of the series)
# In short: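 Chicken DT40 Tdp1-/- cells complemented with human TDP1, 400 cells/well, exposed to compounds plus 20 nM camptothecin for at least 48 h at 37 C; viability read as ATP content by CellTiter-Glo luminescence.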
# % is set by controls: 0 for no effect and ±100 for the full control effect; potency is the fitted concentration of half-maximal effect; tags give direction and shape of the fitted curve.
SMILES,Potency,"activity change, negative = growth inhibition"
CCCCNC(=O)c1cn(C)c2ccc(S(=O)(=O)N3CC(C)CC(C)C3)cc2c1=O (configuration not stated),"inconclusive: 25.9 µM [inhibitor, single point]",
O=[N+]([O-])c1ccc(/C=C/c2nc3ccc([N+](=O)[O-])cc3[nH]2)cc1,active: 5.8 µM,
CCN(CC)CC(O)COc1ccc2c(c1)OCO2 (configuration not stated),,inactive: -4.01%
Cc1ccc2nc(Cl)c3cc(C(=O)N(CCN(C)C)Cc4ccco4)sc3c2c1,,inactive: -109%
Cc1ccc(Cl)cc1N1CCN(Cc2nc3ccsc3c(=O)[nH]2)CC1,"inconclusive: 20.6 µM [inhibitor, single point]",
CN(C(=O)c1cccc(NC(=O)Cc2ccc([N+](=O)[O-])cc2)c1)C1CCCC1,active: 23.1 µM,
COc1cc(OC)c(NC(=O)c2c3c(nn2C)-c2ccccc2SC3)cc1Cl,,inactive: -88.3%
O=C(C=Cc1ccco1)c1ccco1,,inactive: -16%
CCOC(=O)c1c(N)n(-c2cccc(C)c2C)c2nc3ccccc3nc12,,inactive: 3.51%
COc1ccccc1NC(=O)Nc1ccccc1C(N)=O,"inconclusive: 25.9 µM [inhibitor, single point]",
CCOc1ccc(CCN2C(=O)C(=O)N([C@@H](Cc3ccccc3)CN3CCC[C@H]3CN3C(=O)C(=O)NC[C@@H]3Cc3ccccc3)C[C@@H]2CC(C)C)cc1,"inconclusive: 29.1 µM [inhibitor, single point]",
COc1ccc(C(=O)CSc2ccc(-c3ccccc3)nn2)cc1,"inconclusive: 25.9 µM [inhibitor, single point]",
O=C(CN1CCN(Cc2ccc(F)cc2)C1=O)NC1CCCC1,,inactive: -9.4%
Cc1ccc2c(c1)CCCN2C(=O)c1cc2ccccc2oc1=O,,inactive: -5.85%
CC(=O)N1CCN(C(=O)CNc2cc(C(F)(F)F)ccc2OCC(F)(F)F)CC1,,inactive: -6.35%
CC(=O)NC(CC(=O)Nc1ccc(S(=O)(=O)Nc2nccs2)cc1)c1ccccc1 (configuration not stated),,inactive: 0.232%
CNC[C@H](NC[C@@H](NCCCc1ccccc1)c1ccccc1)[C@H](C)O,"inconclusive: 16.4 µM [inhibitor, single point]",
O=C(c1cc(-c2cccnc2)nc2ccc(Br)cc12)N1CCN(c2ncccn2)CC1,"inconclusive: 23.1 µM [inhibitor, single point]",
COc1ccc(C2OC(=O)CC2C(=O)NC(C)C)cc1 (configuration not stated),,inactive: -2.88%
CCOC(=O)CC(N)c1ccc2c(c1)OCO2 (configuration not stated),,inactive: -20.2%
CC(=O)Nc1ccc(NC(=O)CSc2nnc(C3CC3)n2-c2ccccc2)cc1,,inactive: -16.4%
CCNc1nc(-c2sc(NC(=O)C(C)(C)C)nc2C)c(-n2cc(-c3ccccc3)nn2)s1,active: 10.3 µM,
NC(=O)C1=C[C@H](c2coc3ccccc3c2=O)C[C@H](OCCCCO)O1,,inactive: -27.4%
COc1ccc(S(=O)(=O)Nc2cccc(-c3ccc(N4CCCCCC4)nn3)c2)c(OC)c1,"inconclusive: 25.9 µM [inhibitor, single point] and inconclusive: 20.6 µM [inhibitor, single point]",

SMILES,Potency,"activity change, negative = growth inhibition"
O=S(=O)(Nc1ccccc1)c1ccc(Oc2ncc(C(F)(F)F)cc2Cl)cc1,active: 14.6 µM,
CC1(C(=O)Nc2ncc(Cc3ccc(Br)cc3)s2)Cc2ccccc2C(=O)O1 (configuration not stated),active: 23.1 µM,
COc1cccc2c1Oc1ncccc1N(c1ccc(C(=O)NCc3cccc(C)c3)s1)C2,"inconclusive: 29.1 µM [inhibitor, single point]",
CC(=O)Nc1ccc2c(c1)n(C)c(=O)n2C,,inactive: 2.61%
CCOc1ccc(S(=O)(=O)c2ccc(C)cc2)c2c1no[n+]2[O-],active: 14.6 µM,
CC(C)(C)NC(=O)C(C1CC1)n1c(=O)c(-c2ccccc2)nc2ccccc21 (configuration not stated),"inconclusive: 20.6 µM [inhibitor, single point]",
O=C(Nc1ccccc1C(=O)OCC(=O)c1c[nH]c2ccccc12)c1ccco1,active: 8.2 µM,
COc1ccc(N(C)S(=O)(=O)c2cccc(C(=O)NCc3ccc(C)cc3)c2)cc1,"inconclusive: 25.9 µM [inhibitor, single point]",
Cc1cc(C)c2oc(-c3ccc(C)c(NC(=S)NC(=O)c4cccs4)c3)nc2c1,"inconclusive: 29.1 µM [inhibitor, single point]",
Nc1nnnn1NCc1cccc(OCc2ccccc2)c1,"inconclusive: 20.6 µM [inhibitor, partial curve]",
CCOC(=O)CCS(=O)(=O)c1nc(-c2ccccc2)cc(C(F)(F)F)n1,active: 0.411 µM,
CCC(C)NC(=O)c1ccc2nc(Cc3ccccc3)oc2c1 (configuration not stated),"inconclusive: 23.1 µM [inhibitor, single point]",
CCCCC1=CC2=CC(=O)C(C)(OC(=O)CC)C(=O)C2=CN1CC(C)C (configuration not stated),"inconclusive: 18.4 µM [inhibitor, partial curve]",
COc1ccc(-c2nc3scc(CCNC(=O)Cc4ccc(F)cc4)n3n2)cc1,"inconclusive: 29.1 µM [inhibitor, single point]",
COc1ccc(S(=O)(=O)N(C)C[C@H]2Oc3c(NC(=O)Nc4ccccc4)cccc3C(=O)N([C@H](C)CO)C[C@@H]2C)cc1,,inconclusive: -31.5% [inhibitor]
CC(=O)c1c(-c2ccc(Cl)cc2Cl)noc1C,,inactive: 19.1%
Cc1onc(-c2ccccc2)c1C(=O)Nc1nc2c(s1)C(=O)CC(C)(C)C2,,inactive: -9.96%
COc1cccc(C(=O)c2cc3ccc(O)cc3oc2=O)c1,"inconclusive: 6.51 µM [inhibitor, partial curve, poor fit]",
Cc1cccc(-c2nnc(C(C)Nc3cccc(C(=O)NC4CC4)c3)o2)c1 (configuration not stated),"inconclusive: 32.6 µM [inhibitor, single point]",
OCCC1CN(Cc2cc3ccccc3o2)CCN1Cc1ccc(F)cc1 (configuration not stated),"inconclusive: 25.9 µM [inhibitor, single point]",
COc1cccc(/C=C2\SC(=S)N(CCCC(=O)N3CCCCC3)C2=O)c1,"inconclusive: 29.1 µM [inhibitor, single point]",
CCOc1ccc(NS(=O)(=O)c2ccc3nc(-c4ccccc4)[nH]c3c2)cc1,"inconclusive: 18.4 µM [inhibitor, single point]",
OC[C@@H]1CN(Cc2ccncc2)C[C@H](n2cnc3c(NC4CC4)ncnc32)O1,"inconclusive: 29.1 µM [inhibitor, single point]",
O=C(Nc1cc(Cl)cc(Cl)c1)c1ccc(F)c(S(=O)(=O)NCc2ccccc2Cl)c1,,inactive: -99.3%

SMILES,Potency,"activity change, negative = growth inhibition"
O=C(OCc1cn([C@H]2C[C@H](c3ccc(Cl)cc3)N(CC3CCCCC3)C[C@@H]2O)nn1)c1ccccc1,,inactive: -14.1%
CCOC(=O)Cc1csc(NC(=S)NC(=O)c2ccc(Cl)cc2)n1,"inconclusive: 29.1 µM [inhibitor, single point]",
OCCNc1cnc2ccccc2n1,"inconclusive: 18.4 µM [inhibitor, single point]",
Cc1cc(NC(=O)Cc2ccccc2)c2ccccc2n1,active: 5.17 µM,
COc1ccc2sc(-c3ccc(SC)cc3)c(C#CC(C)(C)O)c2c1,"inconclusive: 29.1 µM [inhibitor, single point]",
COc1ccccc1N1CCN(C(=O)CN(C)S(=O)(=O)c2cc(C)ccc2OC)CC1,,inactive: -12.8%
O=C(NC1CCCN(c2ccc(C(F)(F)F)cn2)C1)c1cc(Cl)ccc1F (configuration not stated),"inconclusive: 29.1 µM [inhibitor, single point]",
CCN(c1ccccc1)S(=O)(=O)c1ccc(N2CCN(c3ccc(O)cc3)CC2)nc1,"inconclusive: 25.9 µM [inhibitor, single point]",
COc1cc2[nH]c(C(=O)N3CCc4ccccc4C3)cc2c(OC)c1OC,"inconclusive: 18.4 µM [inhibitor, single point]",
COCCn1c(N2CCN(c3ccc(OC)cc3)CC2)nc2c1c(=O)n(C)c(=O)n2C,"inconclusive: 9.2 µM [inhibitor, partial curve]",
Cc1ccc(C)c(N2CCN(C(=O)CN(C)S(=O)(=O)c3ccc4c(c3)CCC(=O)N4)CC2)c1,"inconclusive: 29.1 µM [inhibitor, single point]",
CCCOC1CCCN(C(=O)c2cc(COc3ccc(F)c(F)c3)on2)C1 (configuration not stated),"inconclusive: 20.6 µM [inhibitor, single point]",
COCCCN=C(c1ccco1)n1c(=S)nc(-c2ccco2)n(CCCOC)c1=S,active: 25.9 µM,
COc1ccccc1NS(=O)(=O)c1c(C)[nH]c(C)c1C(=O)N1CCCC1,,inactive: 4.76%
COCCNC(=O)C1(C)CCCN(Cc2cc3ccccc3o2)C1 (configuration not stated),"inconclusive: 29.1 µM [inhibitor, single point]",
CCCc1nnc(SCC(=O)NC2CC2)n1C,,inactive: 1.11%
COc1ccc(CCNC(=O)CCCn2nc(C)c3sc4ccccc4c3c2=O)cc1OC,"inconclusive: 25.9 µM [inhibitor, single point]",
Cc1ccc(-c2nc(CS(=O)(=O)CC(=O)Nc3cc(C)ccc3C)c(C)o2)cc1,"inconclusive: 23.1 µM [inhibitor, partial curve]",
COc1ccccc1NC(=O)CSc1nnnn1-c1ccc(F)cc1,,inactive: -8.33%
COc1ccc(C(CNC(=O)c2cc3ccccc3o2)N2CCCC2)cc1 (configuration not stated),"inconclusive: 20.6 µM [inhibitor, single point]",
OCCN(Cc1ccccc1)CC1CC=CCC1 (configuration not stated),,inactive: -20%
COc1cc(CN(C(=O)COc2ccc(Cl)c(C)c2)c2ccccn2)cc(OC)c1OC,active: 11.6 µM,
Cc1ccc(N(C(=O)c2ccccn2)C(C(=O)NC2CCCCC2)c2ccncc2)cc1 (configuration not stated),,inactive: -5.51%
CC(=O)Nc1nonc1C(=O)N1CCC(C)CC1,"inconclusive: 0.259 µM [inhibitor, full curve, poor fit]",
